Results published in ChEMBL document CHEMBL1201862, “PubChem BioAssay data set” (2004).
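How tested: cells in 96-well plates exposed to compound for 48 hours at five concentrations. At the GI50, growth is halved.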 The source made the active and inactive calls. Cut-off read from the data, not from the text of the source: active = GI50 up to about 1.1 µM and inactive = higher.

test system: NCI-H322M; test: NCI tumour cell line growth inhibition, 48 h

Compound	GI50
CCCCOP(=O)(OCCCC)/C(C#N)=C/c1ccco1	inactive: > 100 µM
Cc1nc(O)nc(N/N=C/c2ccc(Cl)cc2)c1C(=O)NC(C)(CO)CO	inactive: > 100 µM
CCCCCCCCCCCCCCCCCC(=O)OCC(COC1OC(CS(=O)(=O)O)C(O)C(O)C1O)OC(=O)CCCCCCCCCCCCCCCCC (configuration not stated)	inactive: > 100 µM
CCNC(=O)CCN(C(=O)O)S(=O)(=O)c1ccc(NC(=O)c2ccccc2)cc1	inactive: > 100 µM
C=CCNC(=O)/C(Cc1cc(Br)c(OC)c(Br)c1O)=N\O	inactive: 4.25 µM
Cc1ccc2c(=O)c3ccccc3sc2c1	inactive: > 100 µM
COc1c(CC(C)=O)c2ccccc2n1C(C)=O	inactive: > 100 µM
CCCCC(C(=O)NCCNC(=O)CCC(=O)N(C)O)C(=O)NCCNC(=O)CCC(=O)N(C)O	inactive: > 100 µM
CS(=O)(=O)Nc1ccc2ccccc2c1-c1c(NS(C)(=O)=O)ccc2ccccc12	inactive: > 25 µM
O=[N+]([O-])c1nccn1COCCBr	inactive: > 100 µM
Cc1cc(=O)oc2c(CNC(CO)C(=O)O)c(O)ccc12 (configuration not stated)	inactive: > 100 µM
Nc1c(C(=O)c2ccccc2)[nH]c(NCc2ccccc2)c1C(=S)Nc1ccccc1	inactive: > 100 µM
CCOC(=O)c1cc(C)n(CN(CCO)Cn2nc(C(=O)OCC)cc2C)n1	inactive: > 100 µM
COc1ccc(COCCOCc2nc(C#N)c(N)o2)cc1	inactive: > 100 µM
O=C(Nc1ccccc1F)c1cc2ccc(O)cc2o/c1=N\c1ccccc1F	inactive: 2.16 µM
CCCCc1c2c(nc3c1CCCC3O)CCCC2 (configuration not stated)	inactive: > 100 µM
Cc1cccc(NC(=O)CSc2nnc(Cc3ccccc3)o2)c1	inactive: > 100 µM
Nc1c(/N=N/c2ccc(-c3ccc(/N=N/c4c(O)ccc5cc(S(=O)(=O)O)cc(S(=O)(=O)O)c45)cc3)cc2)c(S(=O)(=O)O)cc2cc(S(=O)(=O)O)c(/N=N/c3ccccc3)c(O)c12	inactive: > 88.5 µM
CCCCCCCCCCCCCCCCCC(=O)NCCCNCCCNC(=O)CCCCCCCCCCCCCCCCC	inactive: > 100 µM

Compound	GI50
COc1ccc(OC)c(/C=C(/C#N)c2ccccc2)c1	inactive: 36.1 µM
COc1ccccc1C(=O)c1c(N2CCCCC2)c(=O)c1=O	inactive: > 100 µM
Cc1ccc2c(c1)CC1(C2)Cc2ccc(C)cc2C1=O (configuration not stated)	inactive: 24.3 µM
CCC(CC)n1c(C)nc2c1C(=O)c1ccccc1C2=O	inactive: 76.2 µM
CC1=C2C(O)C(C(C)CO)C(O)CC2(C)C(O)CC1 (configuration not stated)	inactive: > 100 µM
CC(=O)OCc1cc(CCC(=O)NCCNc2c3ccccc3nc3ccccc23)cc(COC(C)=O)c1O[Si](C)(C)C(C)(C)C	inactive: 13.5 µM
Cn1c2ccccc2c2ccc3c(c21)C(=O)C(c1ccccc1)=CC3=O	inactive: 30.9 µM
COc1c(-c2ccc3c(c2)OCO3)oc2cc3c(c(OC)c2c1=O)OCO3 [MELITERNATIN]	inactive: 12.6 µM
CCCCCCOc1ccc(NC2=C(Cl)C(=O)c3c(O)ccc(O)c3C2=O)cc1	inactive: 2.01 µM
Nc1ccc(Sc2c3ccccc3nc3ccccc23)cc1	inactive: 22.5 µM
CC(C)OP(=O)(OC(C)C)/C(=N/Nc1ccc([N+](=O)[O-])cc1)Nc1ccccc1	inactive: 54.1 µM
CCCCCCCCCCCCCCCCCCOCC(COCCOCC[N+]1(CCCCCC(=O)[O-])CCCC1)Oc1ncccn1 (configuration not stated)	inactive: 2.62 µM
COc1cccc(CCNC(=O)Cc2ccccc2CCO)c1	inactive: > 100 µM
O=C(O)C(Cl)(c1ccccc1)c1ccccc1	inactive: > 100 µM
C=C(c1ccc2[nH]c(NC(=O)OC)nc2c1)c1cccs1	active: 0.166 µM
O=C1/C(=C/c2ccccc2O)N=C(c2ccccc2)N1c1nc2ccccc2s1	inactive: 34 µM
Cc1ccc(/N=N/c2c(C)nn(C(=O)CC(=O)Nc3ccc(Cl)cc3)c2C)cc1C	inactive: > 100 µM
CCOC(=O)c1cccn1S(=O)(=O)c1cc(Cl)ccc1NC(=O)CC	inactive: 54.5 µM
